Results as given in PubChem BioAssay AID651820 (National Center for Advancing Translational Sciences (NCATS), 2012).
Among all 340,000 compounds or so, about 12,000 (3.5%) were called active. The inconclusive results got no clear call from the source; some entries with a clear call stand among them for comparison. The call rests on the fitted dose curve; in most records, active means well fitted inhibition curve with a large enough effect; inconclusive means small, poorly fitted or top-dose-only effect, or another doubt; inactive means no such curve, though single readings can be large or run the other way. Potencies of inconclusive entries are left out as doubtful fits.

assay: qHTS Assay for Inhibitors of Hepatitis C Virus (HCV); settings: Huh7.5.1 HCVcc-Cre (HCVcc is cell-culture hepatitis C virus) infection, luciferase reporter, 44 h; activity change, negative = inhibition: at 41.8 µM (top of the series) unless noted
How it was run: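 After 44 h co-culture of compound, cells and HCVcc-Cre (~0.5 moi), substrate is added for 15 min at room temperature and luciferase measured over 15 sec. Cells were seeded at 1,000/well and pre-cultured 4 h.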
On the % scale 0 is the no-effect control and ±100 the full control effect; potency means the concentration at half of the fitted maximal effect; tags describe the fitted curve by direction and shape.

**Q.** With `Cc1ccc(S(=O)(=O)N2C[C@@H]3[C@H]4CC[C@H](C4)[C@@H]3[C@@H](C)[C@@H]2C2CCCCC2=O)cc1` (some centres undefined) as the molecule, how does the Potency read?
**A.** Its Potency is “inactive”.

**Q.** With `CCCn1ncc(CN2CCN(Cc3ccc(C)o3)C(CCO)C2)c1C` (centres undefined) as the molecule, how does the Potency read?
**A.** Its Potency is inconclusive [inhibitor, single point].

**Q.** Which activity change, negative = inhibition does the source give for `COc1ccc(Br)cc1CN1CCC(N2CCCC2)CC1` here?
**A.** Its activity change, negative = inhibition is inconclusive: -46.9% [inhibitor].

**Q.** With `COc1ccc(CN(C(=O)CSc2nnc(-c3ccc(OC)c(OC)c3)o2)c2ccc(F)cc2)cc1` as the molecule, how does the Potency read?
**A.** The Potency was inconclusive [inhibitor, partial curve].

**Q.** For `CC12Cc3cnoc3C=C1CCC1C2CCC2(C)C1CCC2(C)O` (centres undefined), which Potency is on record?
**A.** The Potency was inconclusive [inhibitor, partial curve].

**Q.** With `COc1ccc(-c2noc(-c3ccccc3C(=O)NCc3ccco3)n2)cc1` as the molecule, how does the Potency read?
**A.** The Potency was “inactive”.

**Q.** Which Potency does the source give for `CCN1C(=O)N[C@@H](CCc2ccccc2)C(C(=O)OC)=C1C` here?
**A.** Its Potency is inconclusive [inhibitor, single point].

**Q.** With `COc1ccc(C(=O)Nc2ccc(CN3CCOCC3)cc2)cc1Br` as the molecule, how does the Potency read?
**A.** The Potency was “inactive”.

**Q.** For `COc1cc2ccccc2cc1C(=O)Nc1ccc(Cc2ccncc2)cc1`, which Potency is on record?
**A.** The Potency was active: 10 µM.

**Q.** For `CCCCCN(C(=O)CCC(=O)OCc1cccc(C(F)(F)F)c1)c1c(N)n(CCCC)c(=O)[nH]c1=O`, which Potency is on record?
**A.** The Potency was inconclusive [inhibitor, single point].

**Q.** Which Potency does the source give for `C=CCN1C(=O)CC(C(=O)NC)SC1=Nc1ccc(C(=O)OCC)cc1` (centres undefined) here?
**A.** The Potency was “inactive”.

**Q.** With `O=[N+]([O-])c1cccnc1SCc1ccccc1` as the molecule, how does the Potency read?
**A.** Its Potency is “inactive”.

**Q.** With `CCOc1cc([N+](=O)[O-])cc2c1C(=O)Nc1ccccc1O2` as the molecule, how does the Potency read?
**A.** The Potency was inconclusive [inhibitor, single point].

**Q.** For `CCOC(=O)c1cc2c(=O)n3ccccc3nc2n(Cc2ccco2)c1=NC(=O)c1cccc(OC)c1`, which Potency is on record?
**A.** The Potency was inconclusive [inhibitor, full curve].

**Q.** With `O=C(CSc1ccc(-c2ccccn2)nn1)N1CCCC1` as the molecule, how does the Potency read?
**A.** Its Potency is “inactive”.

**Q.** For `CCN1c2ccccc2-c2nc3ccccc3n2C1c1cccs1` (centres undefined), which Potency is on record?
**A.** Its Potency is inconclusive [inhibitor, single point].

**Q.** With `COc1cccc(CC(=O)OCC(=O)NC2CCCC2)c1` as the molecule, how does the Potency read?
**A.** The Potency was “inactive”.

**Q.** With `O=[N+]([O-])c1cc(S(=O)(=O)N2CCCCCC2)ccc1Cl` as the molecule, how does the Potency read?
**A.** Its Potency is active: 11.2 µM.

**Q.** With `CC(C)OCCCNC1=C(Cl)C(=O)c2ccccc2C1=O` as the molecule, how does the Potency read?
**A.** Its Potency is “inactive”.

**Q.** For `CC(C)(C)[C@H](N)C(=O)N[C@H]1CCC2C3CC=C4C[C@@H](O)CC[C@]4(C)C3CC[C@@]21C` (some centres undefined), which Potency is on record?
**A.** The Potency was active: 11.2 µM.

**Q.** For `COc1cc(/C=N/NC(=O)c2c(-c3c(Cl)cccc3Cl)noc2C)ccc1OCC(N)=O`, which Potency is on record?
**A.** The Potency was “inactive”.

**Q.** Which Potency does the source give for `O=C(Nc1cc(S(=O)(=O)Nc2ccc(Cl)cc2)ccc1O)c1ccc(F)cc1F` here?
**A.** The Potency was inconclusive [inhibitor, single point].

**Q.** Which Potency does the source give for `COc1ccc(OCC(NS(=O)(=O)c2ccc(-n3cnnn3)cc2)C(C)C)cc1` (centres undefined) here?
**A.** The Potency was active: 39.8 µM.

**Q.** With `CCCc1ccc(-c2cc(C(=O)N/N=C/c3ccc([N+](=O)[O-])o3)c3ccccc3n2)cc1` as the molecule, how does the Potency read?
**A.** The Potency was active: 10 µM.

**Q.** With `C[C@H](NC(N)=O)C(=O)Nc1ccc2c(c1)OCO2` as the molecule, how does the Potency read?
**A.** Its Potency is “inactive”.

**Q.** For `Cc1cc(O)c(-c2ccno2)cc1Cl`, which Potency is on record?
**A.** The Potency was inconclusive [inhibitor, single point].

**Q.** Which Potency does the source give for `O=C(CSc1nnc(-c2c[nH]c3ccccc23)o1)NCC1CCCO1` (centres undefined) here?
**A.** Its Potency is “inactive”.

**Q.** For `Cc1ccn2c(=O)nc(SCC(=O)NCc3ccccc3)nc2c1`, which Potency is on record?
**A.** Its Potency is “inactive”.

**Q.** With `Cc1ccc(NS(=O)(=O)c2cccc(C(=O)NC3CC3)c2)c(C)c1` as the molecule, how does the Potency read?
**A.** The Potency was inconclusive [inhibitor, single point].

**Q.** Which Potency does the source give for `COc1cccc(Nc2nc(-c3sc(N)nc3C)cs2)c1` here?
**A.** The Potency was inconclusive [inhibitor, single point].

**Q.** For `COc1cc(C(=O)O[C@H]2C/C(C)=C/CC[C@@]3(C)O[C@@H]3[C@H](O)[C@@H]2C(C)C)cc(OC)c1OC`, which Potency is on record?
**A.** The Potency was inconclusive [inhibitor, single point].

**Q.** For `CCNC(=S)NNC(=O)CCn1c2ccccc2c2ccccc21`, which Potency is on record?
**A.** The Potency was inconclusive [inhibitor, single point].

**Q.** With `O=C(CCCl)Nc1nc2c(s1)CCc1ccccc1-2` as the molecule, how does the Potency read?
**A.** The Potency was “inactive”.

**Q.** With `CC(C)CCNC(=O)c1onc(CSc2ccc(F)c(F)c2)c1C(=O)NCCC(C)C` as the molecule, how does the Potency read?
**A.** The Potency was “inactive”.

**Q.** For `OC(COc1ccc2cc(Br)ccc2c1)CN1CCCC1` (centres undefined), which Potency is on record?
**A.** Its Potency is active: 4.47 µM.

**Q.** For `Nc1ccc(-c2nc3ccc(-c4nc5ccccc5o4)cc3[nH]2)cc1`, which Potency is on record?
**A.** Its Potency is inconclusive [inhibitor, single point].

**Q.** Which Potency does the source give for `c1ccc(-c2noc(-c3cccc4ccccc34)n2)cc1` here?
**A.** Its Potency is “inactive”.

**Q.** For `C/C(=N\NC(=O)COc1ccc(C#N)cc1)c1ccc(N2CCOCC2)cc1`, which Potency is on record?
**A.** Its Potency is inconclusive [inhibitor, partial curve].

**Q.** Which Potency does the source give for `COc1cc2c(c(OC)c1OC)-c1ccc(SC)c(=O)cc1C(N)CC2` (centres undefined) here?
**A.** Its Potency is “inactive”.

**Q.** With `CC(=O)Oc1ccc(-c2csc(Nc3cccc(C)n3)n2)cc1` as the molecule, how does the Potency read?
**A.** The Potency was inconclusive [inhibitor, single point].

**Q.** Which Potency does the source give for `CCCC(c1nnnn1Cc1ccco1)N1CCN(c2ccccc2)CC1` (centres undefined) here?
**A.** Its Potency is “inactive”.

**Q.** For `CC(C)CC1NC(=O)N(CC(=O)Nc2ccc3c(c2)CCC3)C1=O` (centres undefined), which Potency is on record?
**A.** Its Potency is “inactive”.

**Q.** Which Potency does the source give for `CC(C)C(C(=O)NCC1CCCO1)N(Cc1ccco1)C(=O)CNS(=O)(=O)c1ccc(F)cc1` (centres undefined) here?
**A.** The Potency was inconclusive [inhibitor, single point].

**Q.** With `Cc1cc(Br)ccc1OCC(=O)N1CCCCCC1` as the molecule, how does the Potency read?
**A.** The Potency was “inactive”.

**Q.** Which Potency does the source give for `COc1cc(/C=C(\C#N)c2nc3ccccc3[nH]2)cc(OC)c1O` here?
**A.** The Potency was inconclusive [inhibitor, full curve].

**Q.** For `COc1ccc2c(-c3ccc(OCCN4CCOCC4)cc3)c(-c3ccccc3OC)sc2c1`, which Potency is on record?
**A.** The Potency was inconclusive [inhibitor, full curve, poor fit].

**Q.** For `CCC(C)c1ccc(NC(=O)c2cccnc2)cc1` (centres undefined), which Potency is on record?
**A.** The Potency was inconclusive [inhibitor, partial curve, poor fit].

**Q.** With `Cc1ccc(NC(=O)c2ccc(OC(F)F)cc2)cc1S(=O)(=O)N(C)C` as the molecule, how does the Potency read?
**A.** The Potency was active: 7.94 µM.

**Q.** Which Potency does the source give for `Cc1ccc(S(=O)(=O)CCC(=O)OCC(=O)c2c(C)[nH]c3ccccc23)cc1` here?
**A.** Its Potency is “inactive”.
